# In the BET-seq Pho4 binding data (Le et al. 2018):
# The list shows a part of the results. These are noisy estimates, calculated here from bound and input reads.
# Molecular target: T1, Pho4 (S. cerevisiae) (UniProt P07270)
# T1 sequence: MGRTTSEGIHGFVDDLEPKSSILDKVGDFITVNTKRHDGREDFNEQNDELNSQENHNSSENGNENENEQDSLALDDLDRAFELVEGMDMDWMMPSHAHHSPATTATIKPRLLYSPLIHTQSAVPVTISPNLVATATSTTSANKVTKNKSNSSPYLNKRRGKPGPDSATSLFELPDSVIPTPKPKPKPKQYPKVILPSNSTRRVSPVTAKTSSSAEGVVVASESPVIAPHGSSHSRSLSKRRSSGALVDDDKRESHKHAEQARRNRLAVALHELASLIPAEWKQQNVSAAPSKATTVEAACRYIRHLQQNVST
# Test: relative binding free energy (BET-seq); higher = weaker binding
# Settings: reference: library average
row,Sequence,relative binding free energy [kcal/mol]
1,TGTTACACGTGAATCA,0.32
2,CGAGACACGTGTGGTT,0.22
3,TGGGACACGTGCCGTT,-0.03
4,TTCTGCACGTGTCGGT,0.02
5,TTTGTCACGTGGCTCA,-0.03
6,CATTGCACGTGCGGGG,-0.04
7,ATAATCACGTGGGGTA,0.09
8,TGGGTCACGTGAACAG,0.23
9,TTCGCCACGTGAGTGT,0.11
10,CTGACCACGTGTGGGT,-0.08
11,GGACGCACGTGTGTTG,-0.09
12,GGTGCCACGTGACGGT,-0.01
13,AGTTACACGTGGGTAC,-0.08
14,ACGTGCACGTGTGTCG,-0.1
15,GGTCACACGTGGGCTG,-0.07
16,TGTCCCACGTGGGGGT,-0.38
17,GATTTCACGTGTTCGT,0.48
18,TAGTGCACGTGGAAGT,0.11
19,AAACTCACGTGTGTTT,0.2
20,CGTTTCACGTGTGTCG,0.17
21,AGAATCACGTGGGTGA,0.21
22,CTATGCACGTGTGATT,-0.02
23,TTGGCCACGTGGGTCA,-0.22
24,GGTTACACGTGAAATT,0.3
25,TTTGACACGTGGGCTT,-0.17
26,TCCTGCACGTGTGTTG,0.03

row,Sequence,relative binding free energy [kcal/mol]
1,TTTGCCACGTGATAAG,0.17
2,GTGTTCACGTGTAGGA,0.19
3,GTTGTCACGTGATGTG,0.39
4,GTTACCACGTGGTGCT,0.03
5,CATGTCACGTGACGGG,0.18
6,AGGTTCACGTGGTGGC,0.29
7,GGGTGCACGTGGGCAT,-0.03
8,GGAACCACGTGTGTTG,0.03
9,CTGGACACGTGGAGTT,0.1
10,GCATTCACGTGGGGAT,0.15
11,AGTAGCACGTGAGGTA,0.27
12,ATTTGCACGTGGCCGG,-0.14
13,GGTTACACGTGAGTTC,0.44
14,ACTTTCACGTGGCGGG,0.35
15,CGCGGCACGTGCGGGG,-0.09
16,ACGGGCACGTGGTTAG,-0.25
17,GTTTTCACGTGCAAAG,0.33
18,GTTGGCACGTGTAATA,0.01
19,GATTTCACGTGAGCGG,0.37
20,TAGCTCACGTGGTTAG,0.19
21,TGTCTCACGTGAGGCG,0.31
22,TTAAGCACGTGTGCTA,-0.09
23,TGTTTCACGTGAGAAC,0.56
24,GGGTACACGTGGCGAG,0.08
25,TGTTGCACGTGGTGTA,-0.14
26,GGTCGCACGTGAGTAA,0.19

row,Sequence,relative binding free energy [kcal/mol]
1,GTGTGCACGTGTAGAG,0
2,GTTTGCACGTGGGAGA,0.07
3,TTGGTCACGTGCCTGG,0
4,CTGTGCACGTGCAGGG,-0.18
5,TTTACCACGTGGTGGG,-0.19
6,GGTGGCACGTGGTATA,-0.05
7,TGGGTCACGTGGGTGA,-0.06
8,TGGGCCACGTGGTCTT,0.02
9,ATGATCACGTGGGGTT,0.06
10,TTCATCACGTGATGTT,0.09
11,TTTTACACGTGACGAG,0.29
12,GGCGGCACGTGCGTGA,-0.09
13,GTGTCCACGTGTTTGG,0.1
14,AGCGTCACGTGCGTTG,-0.06
15,ACTGGCACGTGGGAAT,-0.19
16,TAGGTCACGTGGGTGT,-0.05
17,TTAGGCACGTGATGGA,-0.1
18,TCTGGCACGTGTTACT,0.08
19,TGGGCCACGTGGGGCT,-0.2
20,TAGTGCACGTGGAGCT,-0.05
21,GTTGGCACGTGCTAGT,-0.17
22,TAACGCACGTGCGGGG,-0.23
23,ATGTTCACGTGTCATA,0.28
24,AATGGCACGTGGGGAC,-0.2
25,GATTGCACGTGTATTT,0.16
26,TGGTTCACGTGGGCAG,0.14

row,Sequence,relative binding free energy [kcal/mol]
1,GAGTGCACGTGGAGTT,0.04
2,TGGAGCACGTGCGCGT,-0.24
3,TGAGACACGTGTGCGT,0
4,TGGTACACGTGGGTAC,-0.17
5,TAGGTCACGTGCGCGT,-0.09
6,GGAGGCACGTGGGTCA,-0.15
7,ATGTGCACGTGTCGGA,-0.03
8,CATTGCACGTGATTTT,0.1
9,TGGTGCACGTGGTGCA,-0.06
10,AGGGGCACGTGGGCAA,-0.24
11,TCATACACGTGGTGTT,-0.19
12,ACTGGCACGTGGGTGG,-0.23
13,TTTCTCACGTGATCGT,0.28
14,TAGCGCACGTGTTTGT,-0.15
15,TCAGGCACGTGTCGTG,-0.11
16,ATACGCACGTGTTGGA,-0.09
17,TGAGTCACGTGTGCAT,0.12
18,ATCGGCACGTGTGTTA,-0.06
19,GGTTACACGTGTCAGT,0.22
20,TGCGTCACGTGTTATG,0.09
21,GTTTGCACGTGTTCGG,0.12
22,GGTATCACGTGGGATC,0.21
23,TGTTCCACGTGTTGTT,0.08
24,GTATGCACGTGTCATT,0.01
25,GTCGGCACGTGAACGG,0.25
26,CTTGGCACGTGAATGT,0.01

row,Sequence,relative binding free energy [kcal/mol]
1,TGTAACACGTGGGACG,-0.15
2,ATGGTCACGTGATTGA,0.17
3,GGGAGCACGTGGGGTG,-0.22
4,TGAAGCACGTGCGGTT,-0.13
5,GTGGTCACGTGATGGC,0.35
6,AGGGTCACGTGGCAAA,0.07
7,GGTGCCACGTGGTTAG,-0.12
8,AGATTCACGTGTTTAT,0.31
9,TGCAGCACGTGTGTAG,0.02
10,GGCGTCACGTGCGCGG,-0.1
11,GCATGCACGTGGTTGG,-0.02
12,TGGTGCACGTGTTCCG,-0.01
13,TAGGCCACGTGGGTCG,-0.29
14,GTAAACACGTGTGGGC,0.18
15,GGATCCACGTGGGGGC,-0.09
16,GGTTGCACGTGAGATT,0.26
17,ACGGTCACGTGGTTAG,0.01
18,AGGGTCACGTGTCAGC,0.17
19,GTTCTCACGTGTTGTT,0.17
20,GGGAGCACGTGTGGCG,-0.15
21,GTATTCACGTGCTTGG,0.21
22,ATTGTCACGTGATAAT,0.15
23,ATGTGCACGTGGATGT,0.02
24,AGTGACACGTGCGTGA,-0.01
25,TTGCACACGTGTGGGC,0.12
26,TGCAGCACGTGTGGAA,-0.05

row,Sequence,relative binding free energy [kcal/mol]
1,TGGAGCACGTGGGATG,-0.19
2,AGTGGCACGTGGTTTT,-0.07
3,GCTCGCACGTGTTTGG,-0.1
4,TTGACCACGTGGGTCG,-0.19
5,GAGTGCACGTGAGTGG,0.26
6,GTGGGCACGTGACCGG,0.03
7,TTATACACGTGTGTCG,-0.04
8,TCGTACACGTGCTATG,0.11
9,ATGAGCACGTGGCGGC,-0.16
10,GGCCGCACGTGTGGGG,0.02
11,TGTGGCACGTGGCACG,-0.22
12,TTTTTCACGTGTTTTA,0.28
13,GGATTCACGTGTTCAG,0.32
14,GAGTACACGTGCTGTT,0.27
15,TGGATCACGTGGTTGA,0.08
16,TTTTCCACGTGTCTGT,0.13
17,TATTTCACGTGCAGGC,0.46
18,TGGAGCACGTGGCGCG,-0.26
19,GTTTGCACGTGCTGGG,0.15
20,GAGGGCACGTGCGGGC,-0.26
21,AGATGCACGTGGTTTG,-0.08
22,CTTAGCACGTGGGATT,-0.18
23,TAACTCACGTGTTTGT,0.18
24,AAGGTCACGTGGGGCT,-0.1
25,AATAGCACGTGTTATA,-0.07
26,CTTGGCACGTGGTGGT,-0.13

row,Sequence,relative binding free energy [kcal/mol]
1,ATGGTCACGTGAATCG,0.39
2,TGTGGCACGTGCGATG,-0.15
3,ATTGGCACGTGTTCTA,-0.04
4,TGCCTCACGTGGGGGT,0.06
5,GATCGCACGTGCGTGG,-0.08
6,CTTGTCACGTGTTGTG,0.05
7,TGCTTCACGTGGCTGG,0.28
8,GGTAGCACGTGAGGTC,0.2
9,CGGTTCACGTGGTCTG,0.19
10,ATGGTCACGTGGGCGT,-0.13
11,CTTGTCACGTGCTGGG,0.06
12,TTCGACACGTGAGTTA,0.37
13,ATTGGCACGTGAGCAG,0.03
14,GGGAGCACGTGAAGCG,0.19
15,ATTTTCACGTGGACAT,0.21
16,GTAGTCACGTGTCTGT,0.01
17,TGGGTCACGTGGGGGC,0.06
18,GTGGGCACGTGGCGAG,-0.13
19,GTAAACACGTGCGGTT,-0.06
20,TGTTCCACGTGCATGT,0.01
21,AGTAGCACGTGGTGTT,-0.18
22,TTCGTCACGTGTGTAG,-0.02
23,GGGTTCACGTGAGGCG,0.42
24,TTTGACACGTGCTTGA,-0.08
25,GAGGACACGTGTAGGA,0.07
26,GTTGGCACGTGTGTAG,0

row,Sequence,relative binding free energy [kcal/mol]
1,GGTATCACGTGGGGCC,0.14
2,ATTGACACGTGTTGTC,-0.03
3,AAAAGCACGTGATGTG,0.08
4,GGTTACACGTGACGCG,0.33
5,TGCTGCACGTGGGGTG,-0.21
6,ATTTACACGTGTGACT,0.27
7,GTTAACACGTGTGTAA,0.11
8,TGGGTCACGTGGGTTG,-0.03
9,TGGGACACGTGAACGG,0.31
10,TTTGACACGTGATATA,-0.06
11,TCGAGCACGTGTGGGT,-0.13
12,TGGGACACGTGTTTTG,0.18
13,GTGTTCACGTGGTGTT,0.23
14,GGGCGCACGTGGCGAG,-0.04
15,GGGAGCACGTGATATA,0.14
16,TGCGCCACGTGTATGT,-0.02
17,GTAGACACGTGGCAGG,0
18,TTGGGCACGTGTCATG,-0.07
19,GTTATCACGTGGGTAG,0.01
20,AAATGCACGTGGGATT,-0.03
21,GGTGTCACGTGGAAGG,0.07
22,TTGGACACGTGGTAAG,-0.09
23,GTGTGCACGTGTGCTC,0
24,TTAGGCACGTGCGATT,-0.05
25,CTGAGCACGTGTGTGG,-0.1
26,TAGGTCACGTGAGAGG,0.21

row,Sequence,relative binding free energy [kcal/mol]
1,TGGGGCACGTGTGTTC,-0.05
2,TAAGGCACGTGTTCTG,-0.1
3,ATAAGCACGTGTGCGG,-0.17
4,GGCATCACGTGTTGTT,0.2
5,ATGTGCACGTGCAGTG,0.01
6,GGGTGCACGTGCAGGC,0.11
7,AGGTTCACGTGCGGAA,0.16
8,TGTGTCACGTGGGTAT,-0.03
9,ATTTGCACGTGTGACA,0.09
10,CGGGGCACGTGGAGAC,-0.02
11,AGTGACACGTGTAGCA,0.13
12,GTTATCACGTGGTATA,0.07
13,GGAATCACGTGTGTTA,0.21
14,CGCGCCACGTGGAGGG,-0.13
15,GGTAACACGTGTGGAA,0.18
16,CGCGGCACGTGGTCGG,-0.32
17,GTCTTCACGTGTAGGG,0.19
18,TGCAACACGTGTTTTG,-0.01
19,ATGGGCACGTGCGAAT,-0.15
20,CGTGCCACGTGATTGT,-0.04
21,GTAAGCACGTGGATGG,-0.14
22,AGTTTCACGTGTTAGT,0.36
